Data from the supplement of paper PMC4967469.
Lines with a small IC50 respond at low doses; fits outside the tested doses are given as limits. For AUC the same curve is integrated over the 256-fold range of doses and scaled to a fraction: 1 means no effect, lower means more sensitive. For part of these data: A top dose marked as inferred was derived from the fitted curves, not read from the paper. For part of these data: Drugs with an entry number were screened twice under separate entries, and the two screens often disagree.

Tests used:
Assay in all cases: Viability of human cancer cell lines after 72 h of drug (GDSC screen)
[1] = compound: COc1cc(F)c(F)c(Nc2ccc(I)cc2F)c1NS(=O)(=O)C1(C[C@H](O)CO)CC1 [RDEA119]; settings: top dose 5 µM, top dose inferred
Method: (§1)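 Human cancer cell lines in 384-well plates, medium with 10% serum, drug for 72 h over a 256-fold dose range (nine 2-fold or five 4-fold steps up to the top dose). Adherent lines were fixed and stained with the nucleic acid dye Syto60, suspension lines read with resazurin; signal relative to control wells, capped at 0 and 100%. One two-parameter sigmoid per drug and line, fitted in a mixed model over all curves with the slope shared within a line.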

[2] = compound: C#Cc1cccc(Nc2ncnc3cc(OC)c(OCCCCCCC(=O)NO)cc23)c1 [CUDC-101]; settings: top dose 5.12 µM; top dose inferred
Method: as §1

[3] = compound: NCC(=O)Nc1ccc(-n2nc(C(F)(F)F)cc2-c2ccc3c(ccc4ccccc43)c2)cc1 [OSU-03012]; settings: top dose 16 µM; top dose inferred
Method: as §1

[4] = compound: OC[C@H](Cc1ccccc1)Nc1nc(Oc2ccc3c(c2)CCC3)nc2c1ncn2Cc1ccc(-c2ccccc2)cc1 [QS11]; settings: top dose 10.24 µM
Method: as §1

[5] = compound: CC(C)(C)c1cc(NC(=O)Nc2ccc(-c3cn4c(n3)sc3cc(OCCN5CCOCC5)ccc34)cc2)no1 [AC220]; settings: top dose 1.024 µM; top dose inferred
Method: as §1

[6] = compound: Fc1cc(-c2ccnc(Nc3ccc(-n4cnc(N5CCOCC5)n4)cc3)n2)cc(N2CCOCC2)c1 [JNK-9L]; settings: top dose 5.12 µM; top dose inferred
Method: as §1

Cell Line	AUC ([1]; screen: GDSC drug entry 1526)	IC50 ([1]; screen: GDSC drug entry 1526) [nM]	AUC [2]	IC50 [2] [nM]	AUC [3]	IC50 [3] [nM]	AUC [4]	IC50 [4] [nM]	AUC [5]	IC50 [5] [nM]	AUC [6]	IC50 [6] [nM]	AUC ([1]; screen: GDSC drug entry 1014)	IC50 ([1]; screen: GDSC drug entry 1014) [nM]
EPLC-272H (lung squamous cell carcinoma, adherent)	0.739	1670	0.396	160	0.774	7120	0.93	> 10200	0.981	> 1020	0.627	752	–	–
HCC70 (breast, adherent)	0.881	> 5000	0.573	505	0.896	> 16000	0.988	> 10200	0.984	> 1020	0.501	322	–	–
HCC1187 (breast, suspension)	–	–	0.723	1320	0.955	> 16000	0.966	> 10200	0.98	> 1020	0.629	712	0.944	> 5000
HCC1428 (breast, adherent)	0.986	> 5000	0.527	381	0.868	> 16000	0.985	> 10200	0.946	> 1020	0.695	1200	0.987	> 5000
HCC1500 (breast, adherent)	0.949	> 5000	0.583	545	0.783	7020	0.987	> 10200	0.977	> 1020	0.717	1350	0.921	> 5000
HCC1806 (breast, adherent)	0.951	> 5000	0.544	418	0.735	4360	0.915	> 10200	0.989	> 1020	0.508	337	0.93	> 5000
HCC1937 (breast, adherent)	0.926	> 5000	0.626	753	0.721	4720	0.985	> 10200	0.969	> 1020	0.686	1150	0.908	> 5000
HCC-44 (lung adenocarcinoma, adherent)	0.721	1300	0.585	545	0.558	1440	0.753	3360	0.984	> 1020	0.48	283	0.472	263
HCC-78 (lung adenocarcinoma, adherent)	0.875	> 5000	0.423	190	0.888	> 16000	0.973	> 10200	0.976	> 1020	0.719	1500	0.835	4130
HCT-116 (large intestine, adherent)	0.531	379	0.405	178	0.797	7100	0.942	> 10200	0.986	> 1020	0.412	186	0.606	601
HSC-2 (head and neck, adherent)	0.89	> 5000	0.61	625	0.602	1860	0.876	8850	0.989	> 1020	0.452	240	0.833	2890
HSC-3 (head and neck, adherent)	0.577	492	0.685	963	0.452	757	0.735	2660	0.99	> 1020	0.616	632	–	–
HSC-4 (head and neck, adherent)	0.424	181	0.507	336	0.721	5300	0.976	> 10200	0.979	> 1020	0.665	1080	–	–
Hs766T (pancreas, adherent)	0.737	1890	0.857	> 5120	0.772	8270	0.961	> 10200	0.984	> 1020	0.77	2590	0.673	1120
Hs-578-T (breast, adherent)	0.848	4070	0.729	1510	0.876	> 16000	0.986	> 10200	0.987	> 1020	0.924	> 5120	0.721	1380
IHH-4 (thyroid, semi-adherent)	0.598	549	0.586	524	0.44	709	0.74	2610	0.993	> 1020	0.335	124	0.489	294
KM12 (large intestine, adherent)	0.931	> 5000	0.673	1020	0.618	2180	0.889	> 10200	0.941	> 1020	0.445	223	0.831	3540
LK-2 (lung squamous cell carcinoma, adherent)	0.949	> 5000	0.534	394	0.81	7830	0.965	> 10200	0.966	> 1020	0.624	686	0.971	> 5000
LS-411N (large intestine, adherent)	0.507	329	0.424	189	0.735	5520	0.814	7180	0.97	> 1020	0.418	181	0.513	343
LU-99A (large cell lung carcinoma, adherent)	0.785	2120	0.769	1910	0.805	7970	0.954	> 10200	0.986	> 1020	0.662	899	–	–

Cell Line	AUC ([1]; screen: GDSC drug entry 1526)	IC50 ([1]; screen: GDSC drug entry 1526) [nM]	AUC [2]	IC50 [2] [nM]	AUC [3]	IC50 [3] [nM]	AUC [4]	IC50 [4] [nM]	AUC [5]	IC50 [5] [nM]	AUC [6]	IC50 [6] [nM]	AUC ([1]; screen: GDSC drug entry 1014)	IC50 ([1]; screen: GDSC drug entry 1014) [nM]
LoVo (large intestine, adherent)	0.737	1500	0.786	2240	0.454	748	0.763	3740	0.987	> 1020	0.529	384	0.496	305
M14 (melanoma, adherent)	0.312	89.7	0.677	1030	0.777	6820	0.978	> 10200	0.987	> 1020	0.541	417	–	–
MDA-MB-157 (breast, adherent)	0.985	> 5000	0.62	691	0.855	13200	0.975	> 10200	0.981	> 1020	0.626	721	0.906	> 5000
MDA-MB-175-VII (breast, adherent)	0.952	> 5000	0.605	641	0.927	> 16000	0.985	> 10200	0.919	> 1020	0.732	1590	–	–
MDA-MB-231 (breast, adherent)	0.774	2080	0.635	773	0.675	3190	0.929	> 10200	0.986	> 1020	0.681	1060	0.698	1170
MDA-MB-436 (breast, adherent)	0.896	> 5000	0.775	2570	0.875	> 16000	0.98	> 10200	0.983	> 1020	0.663	1030	0.805	3350
MDA-MB-453 (breast, adherent)	0.952	> 5000	0.255	58.1	0.805	9160	0.903	> 10200	0.966	> 1020	0.809	3060	0.979	> 5000
MDA-MB-468 (breast, adherent)	0.935	> 5000	0.715	1270	0.845	10900	0.977	> 10200	0.979	> 1020	0.643	783	0.885	> 5000
ME-180 (cervix, adherent)	0.855	4260	0.455	239	0.716	4230	0.972	> 10200	0.975	> 1020	0.61	650	0.879	> 5000
MKN28 (stomach, adherent)	–	–	0.748	1680	0.394	508	0.68	2060	0.987	> 1020	0.537	405	0.802	2530
MKN45 (stomach, adherent)	0.818	3830	0.879	> 5120	0.604	2090	0.784	5610	0.981	> 1020	0.58	560	–	–
NCI-H187 (small cell lung carcinoma, suspension)	0.985	> 5000	0.519	361	0.969	> 16000	0.984	> 10200	0.98	> 1020	0.822	3330	0.986	> 5000
NCI-H322M (lung adenocarcinoma, suspension)	0.948	> 5000	0.546	439	0.985	> 16000	0.982	> 10200	0.971	> 1020	0.965	> 5120	0.92	> 5000
NCI-H441 (lung adenocarcinoma, adherent)	0.71	1580	0.809	4140	0.797	11400	0.909	> 10200	0.978	> 1020	0.816	4490	–	–
NCI-H446 (small cell lung carcinoma, semi-adherent)	0.984	> 5000	0.402	169	0.908	> 16000	0.982	> 10200	0.934	> 1020	0.704	1260	0.966	> 5000
NCI-H460 (large cell lung carcinoma, adherent)	0.867	3790	0.961	> 5120	0.549	1340	0.747	3010	0.989	> 1020	0.519	360	0.81	2330
NCI-H520 (lung squamous cell carcinoma, adherent)	0.984	> 5000	0.481	283	0.669	3020	0.916	> 10200	0.93	> 1020	0.534	398	0.952	> 5000
NCI-H1048 (small cell lung carcinoma, adherent)	0.98	> 5000	0.582	524	0.747	4680	0.942	> 10200	0.985	> 1020	0.627	691	0.877	4160
NCI-H1299 (large cell lung carcinoma, adherent)	0.773	2400	0.802	3230	0.593	1910	0.858	> 10200	0.981	> 1020	0.575	538	–	–
